Test results published in patent US8178677B2, “Hydroxyalkyl substituted imidazoquinolines” (3M Innovative Properties Company, priority 2005, dated 2012).
At least one read-out could not be matched to a standard name with certainty.

How the values were obtained:
[1] = system: interferon (α) (IFN-α) induction in human peripheral blood mononuclear cells (PBMC); assay: Cytokine induction in human cells (PBMC): IFN-α secreted into culture media, ELISA; assay type: cell-based; conditions: background-subtracted
Excerpt: (§1) Cytokine Induction in Human Cells
(§2) An in vitro human blood cell system is used to assess cytokine induction. Activity is based on the measurement of interferon (α) and tumor necrosis factor (α) (IFN-α and TNF-α, respectively) secreted into culture media as described by Testerman et. al. in “Cytokine Induction by the Immunomodulators Imiquimod and S-27609”, Journal of Leukocyte Biology, 58, 365-372 (September, 1995).
(§3) Blood Cell Preparation for Culture
(§4) Whole blood from healthy human donors is collected by venipuncture into vacutainer tubes or syringes containing EDTA. Peripheral blood mononuclear cells (PBMC) are separated from whole blood by density gradient centrifugation using HISTOPAQUE-1077 (Sigma, St. Louis, Mo.) or Ficoll-Paque Plus (Amersham Biosciences Piscataway, N.J.). Blood is diluted 1:1 with Dulbecco's Phosphate Buffered Saline (DPBS) or Hank's Balanced Salts Solution (HBSS). Alternately, whole blood is placed in Accuspin (Sigma) or LeucoSep (Greiner Bio-One, Inc., Longwood, Fla.) centrifuge frit tubes containing density gradient medium. The PBMC layer is collected and washed twice with DPBS or HBSS and re-suspended at 4×10^6 cells/mL in RPMI complete. The PBMC suspension is added to 96 well flat bottom sterile tissue culture plates containing an equal volume of RPMI complete media containing test compound.
(§5) The compounds are solubilized in dimethyl sulfoxide (DMSO). The DMSO concentration should not exceed a final concentration of 1% for addition to the culture wells. The compounds are generally tested at concentrations ranging from 30-0.014 μM. Controls include cell samples with media only, cell samples with DMSO only (no compound), and cell samples with reference compound.
(§6) The solution of test compound is added at 60 μM to the first well containing RPMI complete and serial 3 fold dilutions are made in the wells. The PBMC suspension is then added to the wells in an equal volume, bringing the test compound concentrations to the desired range (usually 30-0.014 μM). The final concentration of PBMC suspension is 2×10^6 cells/mL. The plates are covered with sterile plastic lids, mixed gently and then incubated for 18 to 24 hours at 37° C. in a 5% carbon dioxide atmosphere.
(§7) Following incubation the plates are centrifuged for 10 minutes at 1000 rpm (approximately 200×g) at 4° C. The cell-free culture supernatant is removed and transferred to sterile polypropylene tubes. Samples are maintained at −30 to −70° C. until analysis. The samples are analyzed for IFN-α by ELISA and for TNF-α by IGEN/BioVeris Assay.
(§8) Interferon (α) and Tumor Necrosis Factor (α) Analysis
IFN-α concentration is determined with a human multi-subtype calorimetric sandwich ELISA (Catalog Number 41105) from PBL Biomedical Laboratories, Piscataway, N.J. Results are expressed in pg/mL.
(§9) In total, the data output of the assay consists of concentration values of TNF-α and IFN-α (y-axis) as a function of compound concentration (x-axis).
Analysis of the data has two steps. First, the greater of the mean DMSO (DMSO control wells) or the experimental background (usually 20 pg/mL for IFN-α and 40 pg/mL for TNF-α) is subtracted from each reading. If any negative values result from background subtraction, the reading is reported as “*”, and is noted as not reliably detectable. In subsequent calculations and statistics, “*”, is treated as a zero. Second, all background subtracted values are multiplied by a single adjustment ratio to decrease experiment to experiment variability. The adjustment ratio is the area of the reference compound in the new experiment divided by the expected area of the reference compound based on the past 61 experiments (unadjusted readings). […] The reference compound used is 2-[4-amino-2-ethoxymethyl-6,7,8,9-tetrahydro-α,α-dimethyl-1H-imidazo[4,5-c]quinolin-1-yl]ethanol hydrate (U.S. Pat. No. 5,352,784; Example 91) and the expected area is the sum of the median dose values from the past 61 experiments. […]

[2] = system: tumor necrosis factor (α) (TNF-α) induction in human peripheral blood mononuclear cells (PBMC); assay: Cytokine induction in human cells (PBMC): TNF-α secreted into culture media, ORIGEN M-Series immunoassay; assay type: cell-based; conditions: background-subtracted
Excerpt: as §1, §2, §3, §4, §5, §6, §7, §8
The TNF-α concentration is determined by ORIGEN M-Series Immunoassay and read on an IGEN M-8 analyzer from BioVeris Corporation, formerly known as IGEN International, Gaithersburg, Md. The immunoassay uses a human TNF-α capture and detection antibody pair (Catalog Numbers AHC3419 and AHC3712) from Biosource International, Camarillo, Calif. Results are expressed in pg/mL.
as §9
Analysis of the data has two steps. First, the greater of the mean DMSO (DMSO control wells) or the experimental background (usually 20 pg/mL for IFN-α and 40 pg/mL for TNF-α) is subtracted from each reading. If any negative values result from background subtraction, the reading is reported as “*”, and is noted as not reliably detectable. In subsequent calculations and statistics, “*”, is treated as a zero. Second, all background subtracted values are multiplied by a single adjustment ratio to decrease experiment to experiment variability. The adjustment ratio is the area of the reference compound in the new experiment divided by the expected area of the reference compound based on the past 61 experiments (unadjusted readings). […]

[3] = 18 to 24 hours incubation, reference-adjusted maximal response of dose response curve, median of # experiments
[4] = maximal response in dose response curve, reference-adjusted, median where more than one experiment
[5] = maximal response in dose response curve, reference-adjusted, median where more than one experiment, * = below background of 40 pg/mL

| SMILES | Maximal Response (pg/mL) IFN [1, 3] [pg/mL] | Maximal Response (pg/mL) IFN [1, 4] [pg/mL] | Maximal Response (pg/mL) TNF [2, 5] [pg/mL] | Maximal Response (pg/mL) TNF [2, 3] [pg/mL] |
| --- | --- | --- | --- | --- |
| CC(C)(Cn1c(CCO)nc2c(N)nc3ccccc3c21)NS(C)(=O)=O [Example 6, N-{2-[4-Amino-2-(2-hydroxyethyl)-1H-imidazo[4,5-c]quinolin-1-yl]-1,1-dimethylethyl}methanesulfonamide] | 7521 | 6527 | – | – |
| Nc1nc2ccccc2c2c1nc(CCO)n2CCCNC(=O)c1cc2ccccc2cn1 [Example 2, N-{3-[4-Amino-2-(2-hydroxyethyl)-1H-imidazo[4,5-c]quinolin-1-yl]propyl}isoquinoline-3-carboxamide] | – | 507 | 45 | – |
| CS(=O)(=O)NCCCCn1c(CCO)nc2c(N)nc3ccccc3c21 [Example 3, N-{4-[4-Amino-2-(2-hydroxyethyl)-1H-imidazo[4,5-c]quinolin-1-yl]butyl}methanesulfonamide] | – | 2340 | – | – |
| CS(=O)(=O)NCCCCn1c(CO)nc2c(N)nc3ccccc3c21 [Example 147, N-[4-(4-amino-2-hydroxymethyl-1H-imidazo[4,5-c]quinolin-1-yl)butyl]methanesulfonamide] | – | 7220 | – | – |
| CC(C)(Cn1c(CO)nc2c(N)nc3ccccc3c21)NC(=O)C1CCCCC1 [Example 5, N-[2-(4-Amino-2-hydroxymethyl-1H-imidazo[4,5-c]quinolin-1-yl)-1,1-dimethylethyl]cyclohexanecarboxamide] | – | 17274 | 1130 | – |
| CC(C)(Cn1c(CO)nc2c(N)nc3ccccc3c21)CS(C)(=O)=O [Example 143, {4-Amino-1-[2,2-dimethyl-3-(methylsulfonyl)propyl]-1H-imidazo[4,5-c]quinolin-2-yl}methanol] | – | 5343 | 164 | – |
| Cc1nc2c(N)nc3ccccc3c2n1CC(C)(C)NS(C)(=O)=O [Analog 1, N-[2-(4-Amino-2-methyl-1H-imidazo[4,5-c]quinolin-1-yl)-1,1-dimethylethyl]methanesulfonamide] | 1846 | 1846 | 1518 | 1518 |
| CCCc1nc2c(N)nc3ccccc3c2n1CC(C)(C)NS(C)(=O)=O [Analog 3, N-[2-(4-Amino-2-propyl-1H-imidazo[4,5-c]quinolin-1-yl)-1,1-dimethylethyl]methanesulfonamide] | 832 | 832 | 9780 | 7245 |
| CC(C)(Cn1c(CO)nc2c(N)nc3ccccc3c21)NS(C)(=O)=O [Example 7, N-[2-(4-Amino-2-hydroxymethyl-1H-imidazo[4,5-c]quinolin-1-yl)-1,1-dimethylethyl]methanesulfonamide] | 2250 | 1670 | 154 | 121 |
| COCCc1nc2c(N)nc3ccccc3c2n1CC(C)(C)NS(C)(=O)=O [Analog 5, N-{2-[4-Amino-2-(2-methoxyethyl)-1H-imidazo[4,5-c]quinolin-1-yl]-1,1-dimethylethyl}methanesulfonamide] | 825 | 1308 | 13908 | 12518 |
| CCc1nc2c(N)nc3ccccc3c2n1CC(C)(C)NS(C)(=O)=O [Analog 2, N-[2-(4-Amino-2-ethyl-1H-imidazo[4,5-c]quinolin-1-yl)-1,1-dimethylethyl]methanesulfonamide] | 831 | 1096 | 9675 | 3670 |
| CC(C)(N)Cn1c(CO)nc2c(N)nc3ccccc3c21 [Example 4, 1-(2-Amino-2-methylpropyl)-2-hydroxymethyl-1H-imidazo[4,5-c]quinolin-4-amine] | – | 1893 | 41 | – |
| CC(C)NC(=O)NCCn1c(CO)nc2c(N)nc3ccccc3c21 [Example 144, N-{2-[4-amino-2-(hydroxymethyl)-1H-imidazo[4,5-c]quinolin-1-yl]ethyl}-N′-isopropylurea] | – | 1488 | 74 | – |
| Cc1ccc(S(=O)(=O)NCCCn2c(CCO)nc3c(N)nc4ccccc4c32)cc1 [Example 1, N-{3-[4-Amino-2-(2-hydroxyethyl)-1H-imidazo[4,5-c]quinolin-1-yl]propyl}-4-methylbenzenesulfonamide] | – | 1072 | 143 | – |
| CC(C)NC(=O)NC(C)(C)Cn1c(CO)nc2c(N)nc3ccccc3c21 [Example 142, 1-[2-(4-Amino-2-hydroxymethyl-1H-imidazo[4,5-c]quinolin-1-yl)-1,1-dimethylethyl]-3-(1-methylethyl)urea] | – | 1554 | – | – |
| CCOCc1nc2c(N)nc3ccccc3c2n1CC(C)(C)NS(C)(=O)=O [Analog 4, N-[2-(4-Amino-2-ethoxymethyl-1H-imidazo[4,5-c]quinolin-1-yl)-1,1-dimethylethyl]methanesulfonamide] | 889 | 1138 | 10665 | 10125 |
| CC(C)C(=O)NCCCn1c(CCO)nc2c(N)nc3ccccc3c21 [Example 141, N-{3-[4-Amino-2-(2-hydroxyethyl)-1H-imidazo[4,5-c]quinolin-1-yl]propyl}-2-methylpropionamide] | – | 14046 | 243 | – |
